Assay results taken from the supplement of paper PMC11417369.
± gives the standard deviation of the averaged measurements. Some of the results follow.

tested on: PfAP2-I AP2 domain 3 (GST-tagged); assay: gcPBM binding intensity (ln(normalized median fluorescence intensity)); higher = stronger DNA binding
Procedure, shortened: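 Probes on an Agilent 4 × 180k array were primer-extended, double-stranded and 36 bp long, taken from intergenic genomic regions, with negative controls added. GST-tagged P. falciparum DNA-binding domains from E. coli, about 25 μg on average, were applied to the array for 1 h in 1× PBS containing 1% milk, 0.2 mg/ml BSA, 0.5% salmon testes DNA and 0.03% Triton X-100. Binding intensity, obtained after Alexa488 anti-GST antibody detection and a 488 nm scan, is the highest Masliner-normalised natural-log median intensity across replicate spots of either probe orientation.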

| Sequence | gcPBM binding intensity (ln) |
| --- | --- |
| ATATAACTTTTCTTAACACACAAAAAACAAAAATAA [CACACA_site2380] | 8 ± 0.49 |
| AAGTGTCAAAGTTACACACACAAACTTGTCATTTTT [CACACA_site837] | 7.55 ± 0.79 |
| GGTATACATATTAAATGTACATATTTTAACAATAAG [XGTACX_site4868] | 7.83 ± 0.15 |
| ATATAATTATATAAATGTACTCATTCGTTATTTTGC [XGTACX_site6132] | 7.65 ± 0.37 |
| TATGAATATCTATACACACACATATATATACTCACT [CACACA_site1597] | 7.76 ± 0.56 |
| CAAAGATATATAAACACACAAATATAACATATATAC [CACACA_site7395] | 7.68 ± 0.58 |
| TATGTATATTTTTTTGTGCACATATATATATATATA | 10.72 ± 0.099 |
| TATATTATTATATATTGTACTTTTTATATTTGCATT [XGTACX_site2978] | 7.72 ± 0.49 |
| TACACTTGTAATTGCGTGCACGAAGGATATATATAT | 9.95 ± 0.3 |
| ATTTTTTTTTTAAAATGTACATGAGAAATTGTATAT [XGTACX_site425] | 8.03 ± 0.22 |
| TTTCTTATATAAGTGTACTAAAATATATATATGCAA [GTGCAC_negctrl_site546] | 8.14 ± 0.36 |
| TATATTATTAATTAAGCACACATTATTTTTATAATA [CACACA_site3982] | 8.54 ± 0.3 |
| TAACATAATATAGACACACACATGTACATATGCCAA [CACACA_site1842] | 7.78 ± 0.41 |
| TAAAAAAATAAATATACACACATATATAAATATGTA [CACACA_site6641] | 7.22 ± 0.24 |
| GTTATTTATAGACACACACACATGCATGCACATATA [CACACA_site6204] | 9.01 ± 0.52 |
| CATATATATTTGTTCACACACACACCCAAAAAAAAA [CACACA_site2476] | 8.27 ± 0.33 |
| CACACCCACAGACACACACACACATATATATATATA [CACACA_site363] | 9.45 ± 0.38 |
| ATATATATATATATTTGTACATATATACATAAAATT [XGTACX_site359] | 9.38 ± 0.4 |
| GAAAAAGTTATAAATTGTACTAAATATTAAATATTG [XGTACX_site7890] | 7.46 ± 0.32 |

| Sequence | gcPBM binding intensity (ln) |
| --- | --- |
| TTTAAAATGGGACTTTGAAAAAAAAAAAAAAAAACA [TGCATGCA_negctrl_site111] | 7.78 ± 0.42 |
| TATAGGTATGTATGTACACACAAAAAATGGAATATA [CACACA_site7704] | 8.01 ± 0.41 |
| TATATATATATATATTGTACATAATGTATATATGTT [XGTACX_site3448] | 9.43 ± 0.66 |
| CATATGTTCATCATAGCACACATATATAAATTACAA [CACACA_site9177] | 7.83 ± 0.5 |
| AAAAAAAAAAAAAGGTGTACATGCAAAATAAATTCT [XGTACX_site4592] | 8.56 ± 0.35 |
| AAATAAATAAGAAACGCATGCATATATAATATATAA [TGCATGCA_site326] | 7.7 ± 0.74 |
| TTTATTATCGTTCTCATACACACAAAATATACATAC [CACACA_site2642] | 8.12 ± 0.53 |
| TAGGCGTTTAATAAAAGTACCCACACATATATTATT [XGTACX_site1932] | 7.68 ± 0.49 |
| CATAAATTAATAGTCACACACGTATTTTTTATATAT [CACACA_site2526] | 7.62 ± 0.49 |
| ATTTAACAACTTCAAACACACAATATATATATATAT [CACACA_site2093] | 9.45 ± 0.55 |
| AATTCAAATATAAATACACACACATAGCTACAAAAT [CACACA_site9386] | 7.81 ± 0.69 |
| AAATATATATGTGGGGGTACTAATAAAAAAACCCCT [XGTACX_site2657] | 8.25 ± 0.37 |
| TTACACAAACAAATTATGGACACATAAGTAAAAGGA [CACACA_negctrl_site1622] | 8.21 ± 0.76 |
| TGAAAAAAAAAAAAAAAAAAAAGAAAAAAAAAAAAA [CACACA_negctrl_site709] | 7.82 ± 1.2 |
| TATAATTCATATGAAACACACATTTATTTTAATTAC [CACACA_site3686] | 7.52 ± 0.59 |
| GAAAAAAGAAAAAAAAGTACATATATTTAATAAGAC [XGTACX_site6912] | 8.13 ± 0.45 |
| TTATCCATAAAAAAGTGTACGCACTAAAATTGAAAA [XGTACX_site5460] | 9.4 ± 0.099 |
| ATTAAAACCAATTAAAAAAAATTTATAATGGAAGCA [TGCATGCA_negctrl_site273] | 7.57 ± 0.35 |
| GAGATAAAATAAAACACACACATATATATATATAAT [CACACA_site5246] | 7.68 ± 0.37 |

| Sequence | gcPBM binding intensity (ln) |
| --- | --- |
| AATGACTAAATTTAAACACACAAGGGGAGTTTACTT [CACACA_site918] | 7.51 ± 0.86 |
| TATTATTGTTGTTCATGTACACACTATAATAAAAGC [XGTACX_site8957] | 8.16 ± 0.24 |
| AATAAATAAGCACATACACACATACATACATACATA [CACACA_site6075] | 8.49 ± 0.27 |
| TTGTATTTTTAAATGACACACACATATATATATATA [CACACA_site8481] | 9.32 ± 0.41 |
| AAGTTATAAAAATAAAGTACAAAGTAGCTATTTTTT [XGTACX_site3144] | 7.62 ± 0.45 |
| GACTTTTCATTTATAGTGCAAGTTTTTTTTTTTTTT [GTGCAC_site9698] | 9.69 ± 0.28 |
| ATAAATATAAAAAAATGTACATATAGTAATACATAC [XGTACX_site508] | 7.62 ± 0.52 |
| GAAATAAAAAGAAATGCATGTAATTTTTTTTTTTTT [TGCATGCA_site928] | 7.61 ± 0.83 |
| ATAAGTATAAGAATCAGTACACAGTTTCTACATACT [XGTACX_site5834] | 7.56 ± 0.51 |
| TATATATCATTTAAAACACACAAAAAAAAAAGTTAT [CACACA_site6191] | 7.85 ± 0.55 |
| TTATTTGTATCCATTTCACACATTTTATATAGTATC [CACACA_site5989] | 7.97 ± 0.77 |
| TTTTTTGTTATGCGGGTGCATATAATAATGTGATGA | 10.9 ± 0.89 |
| TTTATCAAAAAAAAAAAAAAAAAAAAAAAAAATTGT [CACACA_negctrl_site176] | 7.49 ± 0.69 |
| TTATGTGCTTTAAAAGTGCATTTTTTTTTTTTTTTT | 10.6 ± 0.19 |
| TATATGTTTTATAAATGTACATATACTTAAATATTT [XGTACX_site4753] | 7.71 ± 0.28 |
| ACTATTAAGAATAAAGAAATATGTAATTGTATTTAA [CACACA_negctrl_site516] | 7.43 ± 0.59 |
| AATACATAATAACGTTGTACAAAAATTATAATACAT [XGTACX_site6508] | 8.14 ± 0.54 |
| TATAAATAAATGTGTACACACATTAAAATCAAACGT [CACACA_site2340] | 8.32 ± 0.042 |
| TTTTTTTTTTTTTTTACACACAAATGTATACTATAT [CACACA_site1787] | 8.21 ± 0.49 |
